Out of some 310,000 compounds screened, about 14,000 (4.5%) showed an effect of 50% or more. Effects have a minus sign here. The list shows a part of the results.
Molecular target: human ether-à-go-go-related gene (hERG) potassium channel (human, UniProt Q12809)
Assay: primary screen, population patch clamp on CHO cells stably expressing hERG
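Further: peak tail current of the secondary pulse compared with the same well before compound.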

Chain of human ether-à-go-go-related gene (hERG) potassium channel (Q12809 whole entry, looked up): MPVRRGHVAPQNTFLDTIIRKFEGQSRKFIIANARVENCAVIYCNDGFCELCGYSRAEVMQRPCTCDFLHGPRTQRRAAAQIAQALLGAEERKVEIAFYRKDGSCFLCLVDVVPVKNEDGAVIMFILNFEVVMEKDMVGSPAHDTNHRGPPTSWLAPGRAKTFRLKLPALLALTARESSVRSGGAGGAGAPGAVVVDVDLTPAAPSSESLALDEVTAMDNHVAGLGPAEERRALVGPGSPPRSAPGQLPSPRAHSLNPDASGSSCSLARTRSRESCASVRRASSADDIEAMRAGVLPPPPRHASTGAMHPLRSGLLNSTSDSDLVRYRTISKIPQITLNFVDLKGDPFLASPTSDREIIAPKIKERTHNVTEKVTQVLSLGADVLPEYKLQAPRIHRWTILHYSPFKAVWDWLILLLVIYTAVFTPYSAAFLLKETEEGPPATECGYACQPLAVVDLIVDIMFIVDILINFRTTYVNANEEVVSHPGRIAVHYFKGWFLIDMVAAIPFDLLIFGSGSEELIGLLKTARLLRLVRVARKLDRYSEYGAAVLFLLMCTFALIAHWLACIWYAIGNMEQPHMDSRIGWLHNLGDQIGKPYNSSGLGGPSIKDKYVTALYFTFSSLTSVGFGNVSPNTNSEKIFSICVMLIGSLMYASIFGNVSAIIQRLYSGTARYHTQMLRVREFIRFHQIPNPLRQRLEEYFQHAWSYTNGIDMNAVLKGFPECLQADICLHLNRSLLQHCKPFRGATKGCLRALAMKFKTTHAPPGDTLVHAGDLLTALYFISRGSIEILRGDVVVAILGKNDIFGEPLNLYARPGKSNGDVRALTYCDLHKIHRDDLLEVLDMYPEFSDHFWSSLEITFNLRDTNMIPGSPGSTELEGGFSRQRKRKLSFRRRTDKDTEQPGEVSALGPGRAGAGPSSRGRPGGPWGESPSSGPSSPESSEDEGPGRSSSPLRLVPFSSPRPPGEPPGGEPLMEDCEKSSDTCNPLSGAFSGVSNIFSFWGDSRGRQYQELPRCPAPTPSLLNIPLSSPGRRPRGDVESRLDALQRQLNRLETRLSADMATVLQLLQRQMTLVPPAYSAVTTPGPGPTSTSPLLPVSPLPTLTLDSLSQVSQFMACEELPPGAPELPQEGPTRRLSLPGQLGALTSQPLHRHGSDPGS

SMILES	hERG current change (%, negative = inhibition) at 10uM [%]
Cc1ccc([N+](=O)[O-])cc1S(=O)(=O)Nc1cccc(-c2ccc(N3CCCC3)nn2)c1	-12.7
Cc1ccc(NC(=O)Nn2cnnc2)c(C)c1	1.62
CC(O)CNC(=O)c1ccc(-c2nn(C)c(=O)c3ccccc23)cc1 (centres unmarked)	-0.479
Cc1cc(C)n(-c2nc3ccccc3nc2Nc2ccc(CC(=O)O)cc2)n1	7.13
CCOC(=O)C1=C(C)C(c2ccccc2OC)NC(=O)N1 (centres unmarked)	16.9
COc1ccc(NC(=S)Nc2ncccc2C)cc1OC	3.58
CCCCNC(=O)Nc1cc(C(=O)OC)ccc1C	7.36
Cc1[nH]c2ccccc2c1C(=O)CNc1nccs1	-3.59
Cc1ccc(CC(=O)Nc2ccc(F)c([N+](=O)[O-])c2)cc1C	-3.41
CCc1c(C)nc(SCC(=O)N2CCCCC2)[nH]c1=O	3.18
Cc1ccccc1C(=O)N[C@H](C(=O)OCC(=O)c1ccc[nH]1)C(C)C	-6.68
Cc1ccccc1N1C(=O)[C@@H]2Cc3ccccc3CN2C1=O	-4.95
CSC1=NC(C)(C)C=C(/C=C/c2ccc(Cl)cc2Cl)N1	18.1
CC(Oc1ccc2ccc(=O)oc2c1)C(=O)NCCN1CCOCC1 (centres unmarked)	15.8
COc1ccc(S(=O)(=O)N2CCC(C(=O)NCC3CCCO3)CC2)cc1Cl (centres unmarked)	9.38
CC(C)(CO)CNC(=O)c1ccc(OC2CCN(C(=O)C3CC3)CC2)cc1	0.279
CCCC(C)NC(=O)COc1ccc(S(=O)(=O)c2ccc(OCC(=O)NC(C)CCC)cc2)cc1 (centres unmarked)	3.31
CCCNC(=O)C1CC(=O)N(c2ccc(OCc3ccc(F)cc3)cc2)C1 (centres unmarked)	8.72
CCC(C)NC(=O)N1c2ccccc2Sc2ccccc21 (centres unmarked)	-4.45

SMILES	hERG current change (%, negative = inhibition) at 10uM [%]
O=C(O)c1ccc2c(c1)C(=O)N(N1C(=O)c3ccccc3C1=O)C2=O	-4.21
Cc1ccccc1NC(=O)c1cccc(C(=O)Nc2ccccc2C)c1	0.597
CC(C)CCOc1ccc(C(=O)NCC(c2ccco2)N(C)C)cc1 (centres unmarked)	17.4
O=C(CCC(=O)N1CCOc2ccc(Cl)cc21)N1CCC2(CC1)OCCO2	-2.22
CCCCc1ccc(NC(=S)N2CCN(c3ncccn3)CC2)cc1	6.94
CC(C)(C)c1cc(C(=O)N/N=C/c2ccco2)n[nH]1	13.5
COCc1ccc(CN2CCCC(C(=O)c3sccc3C)C2)o1 (centres unmarked)	5.56
COc1cc(SC)ccc1C(=O)N1CCN(c2ccccc2)CC1	-17.2
Cc1ccc(C)c(Cn2cnc3c(cnn3C(C)(C)C)c2=O)c1	10.4
CCCC1C2C(=O)N(c3ccc(OC)cc3)C(=O)C2ON1c1ccccc1 (centres unmarked)	11
CCOc1ccc2nc(SCc3cccc(C)c3)nc(C)c2c1	4.91
OCCN1CCN(C(=S)c2ccc(Cl)cc2)CC1	-0.452
CN(C)CCN(C(=O)c1ccc2c(c1)OCCO2)c1nc2ccc(Cl)cc2s1.Cl	-1.19
CCOC(=O)C1=C(N)Oc2cc(C)[nH]c(=O)c2C1c1ccncc1 (centres unmarked)	11.9
O=c1[nH]c(=S)[nH]c(O)c1N=Nc1ccc(S(=O)(=O)N2CCc3ccccc32)cc1	14.4
CCC(C)(C)NC(=O)C(c1ccc(OC)cc1)N(C(=O)CCC(=O)Nc1cc(C)on1)c1ccc2c(c1)OCO2 (centres unmarked)	-4.27
COc1ccc2c(c1)C(C)=CC(C)(C)N2C(=O)Nc1ccccc1	-14.9
CCCCc1nnc(NC(=O)c2oc3ccccc3c2C)s1	1.56
Cc1ccc(-c2nnc3cccc(Cl)n23)cc1	2.55

SMILES	hERG current change (%, negative = inhibition) at 10uM [%]
Cc1cc(C)c(OCC(=O)N2CCN(c3ncc(C(F)(F)F)cc3Cl)CC2)c(C)c1	-16.1
COc1ccc(/C=N/NC(=O)CCn2cnc(-c3ccccc3)c2-c2ccccc2)cc1OC	-9.58
COc1ccc2nc(N3CCN(C(=O)C4COc5ccccc5O4)CC3)sc2c1 (centres unmarked)	-61.2
CCOC(=O)CNC(=O)CCNS(=O)(=O)c1ccc2c(c1)c(=O)n(C)c(=O)n2C	4.99
CCCNC(=O)c1cc(-c2ccco2)on1	14.4
CC(OC(=O)c1ccccc1NS(=O)(=O)c1cccc(C(F)(F)F)c1)C(=O)N(C)Cc1ccccc1 (centres unmarked)	-0.956
O=C1Nc2cc3c(cc2Sc2ccccc21)OCCO3	-8.31
CCc1noc(C)c1C(=O)N1CCN(S(=O)(=O)c2cccs2)CC1	-23.5
CCn1nc(C)cc1C(=O)N1CCCC(C(=O)c2ccc3ccccc3c2)C1 (centres unmarked)	-21.9
Cc1nn(-c2cc(N3CCCC3)ccc2[N+](=O)[O-])c(=O)c2ccccc12	1.89
Cc1ccc(C)c(OCCC(=O)Nc2ccc3c(c2)OCO3)c1	-6.41
Cn1cccc1Cc1nnc(SCC(=O)NC2CCCCC2)n1CCc1ccccc1	-28.2
COc1cc(-c2nc(S(=O)(=O)c3ccc(Cl)cc3)c(N(C)C)o2)cc(OC)c1OC	8.5
COc1cc(/C=C2\SC(=O)N(CC(=O)Nc3ccccc3F)C2=O)cc(Cl)c1O	17.3
Cn1nc(C(=O)N2CCN(S(=O)(=O)c3ccccc3)CC2)c2ccccc2c1=O	-23
CCOC(=O)C1=C(C)N(CCCC(=O)O)C(=O)NC1c1ccc(Cl)cc1Cl (centres unmarked)	20.7
O=C(NCc1ccc(F)cc1)C1CC(=O)N(C2CCCCC2)C1 (centres unmarked)	-2.47
O=C1/C(=C/c2cccnc2)SC(=NCc2ccccc2)N1Cc1ccccc1	2.55
